Publication PMC12136788
The list shows a part of the results.

T1: UNK ZnF1-6 (called full-length) (human, UniProt Q9C0B0 30-357)
T1 sequence: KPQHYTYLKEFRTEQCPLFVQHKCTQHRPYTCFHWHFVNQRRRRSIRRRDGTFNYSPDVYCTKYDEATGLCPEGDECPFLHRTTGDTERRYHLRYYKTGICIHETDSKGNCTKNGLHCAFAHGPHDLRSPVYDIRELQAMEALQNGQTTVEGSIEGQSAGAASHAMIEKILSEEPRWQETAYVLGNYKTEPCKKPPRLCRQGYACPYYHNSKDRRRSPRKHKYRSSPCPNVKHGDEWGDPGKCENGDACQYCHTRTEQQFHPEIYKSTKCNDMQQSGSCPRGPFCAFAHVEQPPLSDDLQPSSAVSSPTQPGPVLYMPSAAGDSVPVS

B1: chr2:157736639:157736676:-|3pUTR|ENSG00000115170|msi1_unk|FALSE|overlapping (ssRNA)
RNA: GGGAGUUCUACAGUCCGACGAUCCUUCACAUUUGUAUGUGUGUAGACUGUAACUUUUUUUCAGUUCAUAUGCAGAACGUAUUUAGCCAUUACCCACGUGACACCACCGAAUAUAUUACUGAUUUAGAAGCAAAGAUUUCAGUACAACAGAGGAUUGAGCAUCA
B2: ENSG00000107863:be:win_3251|CDS|ENSG00000107863|bound_else_gene|NA|bound_elsewhere_windowed (ssRNA)
RNA: GGGAGUUCUACAGUCCGACGAUCCUUUGCUUGGUGCUAAAUCAGAGCCAAAGACUCAAAGCCCACACUCUCCGAAGGAAGAGUCGGAAAGGAAACUUCUCAGUAAAGAUGAUACCAGUCCCCCAAAAGACAAAGGCACAUGGACAACAGAGGAUUGAGCAUCA
B3: chr21:29063390:29063550:-|CDS|ENSG00000156261|unk|FALSE|unique (ssRNA)
RNA: GGGAGUUCUACAGUCCGACGAUCGUUUACUUGUUUUGCCAGGGAACAGUGUUGAUAAAGACUGCUGAAGAAUUGAUGAAUUUUAGUAAGGGAGAAGAAAACCUCAUGGAUGCACAAGUCAAAGCUAUUGCUGAUACUGGUGCACAACAGAGGAUUGAGCAUCA
B4: chr2:190659421:190659522:+|CDS|ENSG00000138386|unk|FALSE|unique (ssRNA)
RNA: GGGAGUUCUACAGUCCGACGAUCAGAGACUGGGUCACAAACCCUGGGCUUUUCAAUCAGCCACUGACUUCCCUUCCUGUCAGUAGCAUACCCAUCUAUAAAUUACCAGAGGGAUCACCAACAUGGCUGGGAAUAUCCUGCAGUCAACAGAGGAUUGAGCAUCA
B5: ENSG00000038382:stop:overlap|stop_codon|ENSG00000038382|stop_codon|NA|stop_codon (ssRNA)
RNA: GGGAGUUCUACAGUCCGACGAUCUUGUAAGUAUAGGCGUUCAGAAUUGUAAGUCUAAAGGUAACACAAUUGCAGUCUUUUUGUAGGUAGAGAAGAAUUGUUCAUUGUCUUCAGUUUAACCUCCCAAUCUGUCCUGAAAUGUUCCAACAGAGGAUUGAGCAUCA
B6: chr12:123662440:123662541:+|3pUTR|ENSG00000111358|unk|total|mutant (ssRNA)
RNA: GGGAGUUCUACAGUCCGACGAUCAAUGGAAAUCACAAUUUUAAGUCCCGGAAAUAAAGUAUUAUAUAUACUUUCAAACAAGCCCGCAAGGCUUUUAUUAUUACUUUUUUAUUUGAAAUAUCUUAUAUAUUUGGUCCGUUCUGUCAACAGAGGAUUGAGCAUCA
B7: chr13:52643008:52643109:+|CDS|ENSG00000139675|unk|total|mutant (ssRNA)
RNA: GGGAGUUCUACAGUCCGACGAUCCAUACUGUGAAGGGCCACAACUGUGAAGUCCGAAAAGCCCUGCCAAAGCAAGAGAUGGCCCGUGCUUCAUCCAGCCAAAGAGGUCGAAGGGGUUCUGGAAACUUUGGUGGUGGUCGUGGACAACAGAGGAUUGAGCAUCA
B8: chr2:240467872:240467977:+|3pUTR|ENSG00000063660|msi1|FALSE|unique (ssRNA)
RNA: GGGAGUUCUACAGUCCGACGAUCCUCUGGCACAGUGAUGCCGGGCGCCAGGACAGCAGCACUCCCGCUGCACACAGACGGCCUAGGGGUGGCGCUCAGACCCCACCCUACGCUCAUCUCUGGAAGGGGCAGCCCUGAGUGGUCCAACAGAGGAUUGAGCAUCA
B9: ENSG00000162521:stop:overlap|stop_codon|ENSG00000162521|stop_codon|NA|stop_codon (ssRNA)
RNA: GGGAGUUCUACAGUCCGACGAUCGUUCUGUAUCAGAAGACAAUAUCAUGCAAGUGUGGCAAAUGGAGUUAGUCCUUGACCACUAGUUUGAUGCCAUCUCCAUUUUGGGUGACCUGUUUCACCAGCAGGCCUGUUACUCUCCAUCAACAGAGGAUUGAGCAUCA
B10: chr2:85649053:85649154:+|3pUTR|ENSG00000168883|unk|total|mutant (ssRNA)
RNA: GGGAGUUCUACAGUCCGACGAUCUUCAGCAGGGCAGAACCCUUCUCCAGAUGUGUGUAACUUAUGUCUUGAGUAUCUGGGAGCCGUUGAAGAACAGAUAAUUCCUUCCAAACAUCAAGCCUUGGGAUUCUUGGAGCAAGCAGACAACAGAGGAUUGAGCAUCA
B11: chr1:39623434:39626506:-|three_prime_utr|ENSG00000163909|control|control|control (ssRNA)
RNA: GGGAGUUCUACAGUCCGACGAUCCCCCAGUCAGGAGCAAUGACUGACUGGCUGCAGCCUUCCCACGCCAAGAGGCUGGAACAUAGUGUCUGCCUCGCUUCCUGGAGAUAGUAACUGAGCAGGGGCUACAAAGAGGUCUCCUGGCAACAGAGGAUUGAGCAUCA
B12: ENSG00000180398:stop:overlap|stop_codon|ENSG00000180398|stop_codon|NA|stop_codon (ssRNA)
RNA: GGGAGUUCUACAGUCCGACGAUCAUGAUGACAAGAACAAUGAUGGAUACAUUGACUAUGCUGAAUUUGCAAAAUCACUGCAGUAGAUGUUAUUUGGCCAUCUCCUGGUUAUAUACAAAUGUGACCCGUGAUAAUGUGAUUGAACAACAGAGGAUUGAGCAUCA
B13: chr2:222942681:222942782:+|3pUTR|ENSG00000123983|msi1|total|mutant (ssRNA)
RNA: GGGAGUUCUACAGUCCGACGAUCAAAAUCCGUGUUUUUCCCCGUUUGCACUGAUGCGUGUAUGGAUGUGUGUGAGUCAGUGGCCGCUUAUUUAAAAAGCACCUUAUCCUUUCUCCCAUAACCUUUGUACACUAAAAAAUGAAACAACAGAGGAUUGAGCAUCA
B14: chr9:122240152:122240253:-|3pUTR|ENSG00000119446|msi1|total|mutant (ssRNA)
RNA: GGGAGUUCUACAGUCCGACGAUCCUUCUUGGAGUACCGAAUUCACCAUUUUAUCCGUAAGUCUUCAAAGGAUUAUGGUGGACCCGAACUUACACCGUGCAAAACCGUCUUCUAUUUUUAACCGGAACUCCGAAAAAACUCCGACAACAGAGGAUUGAGCAUCA

molecular target: T1, UNK ZnF1-6 (called full-length); test: nsRBNS (natural sequence RNA bind-n-seq); RBNS binding buffer (assumed for nsRBNS): 25 mM Tris pH 7.5, 150 mM KCl, 3 mM MgCl2, 0.01% Triton X-100, 500 ug/ml BSA, 20 U/ml SUPERase-In, 4 C; UNK is unkempt and MSI1 is Musashi-1; names of the RNAs are library labels; protein concentration not given here; high values mean tight binding

| Binder | binding signal |
| --- | --- |
| B1 | 0.804 enrichment R |
| B2 | 0.517 enrichment R |
| B3 | 0.523 enrichment R |
| B4 | 0.918 enrichment R |
| B5 | 0.693 enrichment R |
| B6 | 1.78 enrichment R |
| B7 | 0.629 enrichment R |
| B8 | 0.735 enrichment R |
| B9 | 0.501 enrichment R |
| B10 | 0.543 enrichment R |
| B11 | 0.743 enrichment R |
| B12 | 0.87 enrichment R |
| B13 | 0.313 enrichment R |
| B14 | 0.267 enrichment R |
